This is a selection; strong and weak results do not stand in their true shares. The list includes weakly bound sequences.
Biological target: T1, GST-Aq-NF-kB (UniProt A9Y5G7)
T1 sequence: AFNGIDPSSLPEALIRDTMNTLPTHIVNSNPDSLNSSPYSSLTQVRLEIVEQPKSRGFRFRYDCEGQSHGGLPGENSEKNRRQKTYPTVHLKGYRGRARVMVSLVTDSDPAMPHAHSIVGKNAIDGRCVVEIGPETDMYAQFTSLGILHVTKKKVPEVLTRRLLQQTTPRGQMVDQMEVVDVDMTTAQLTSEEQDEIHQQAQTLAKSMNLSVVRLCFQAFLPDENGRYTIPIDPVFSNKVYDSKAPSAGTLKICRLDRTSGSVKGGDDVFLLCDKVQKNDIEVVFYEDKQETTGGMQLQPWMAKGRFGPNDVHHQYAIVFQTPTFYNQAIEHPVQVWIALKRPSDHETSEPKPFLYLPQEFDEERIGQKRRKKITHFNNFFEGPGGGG
Assay: protein-binding microarray (PBM)
Settings: PBM: ~300 nM protein, 6 mM HEPES pH 7.8, 80 mM KCl, 0.5 mM EDTA, 0.5 mM EGTA, 6% glycerol, 35 ng/ul poly-dIdC, 1% milk, 1 h, room temperature; Ap Aiptasia and Nv Nematostella (sea anemones) / Co Capsaspora / Aq Amphimedon (sponge) / Dm Drosophila / Hu human; RHD is the Rel homology domain; high values mean tight binding; most listed sequences are background and not binding sites; double strand, one strand shown

Sequence	binding signal [z-score]
CCGATTAACATCAATAACCCCCCTGATGTTAATCGGGTCTTGATTCGCTTGACGCTGCTG	6.46
CCGATTAACATCAGGGGACATTATGATGTTAATCGGGTCTTGATTCGCTTGACGCTGCTG	4.62
CCGATTAACATCAAGGGGGGAAATGATGTTAATCGGGTCTTGATTCGCTTGACGCTGCTG	5.8
CCGATTAACATCAAAAAATTCCGTGATGTTAATCGGGTCTTGATTCGCTTGACGCTGCTG	2.61
CCGATTAACATCAAGAAATTCCCTGATGTTAATCGGGTCTTGATTCGCTTGACGCTGCTG	6.81
CCGATTAACATCACCCTTTTCCCTGATGTTAATCGGGTCTTGATTCGCTTGACGCTGCTG	2.91
CCGATTAACATCAGGGGATGTGCTGATGTTAATCGGGTCTTGATTCGCTTGACGCTGCTG	2.79
CCGATTAACATCAGGGGGTAGGATGATGTTAATCGGGTCTTGATTCGCTTGACGCTGCTG	2.89
CCGATTAACATCAGGATGTTCCCTGATGTTAATCGGGTCTTGATTCGCTTGACGCTGCTG	4.33
CCGATTAACATCAAATACCCCCCTGATGTTAATCGGGTCTTGATTCGCTTGACGCTGCTG	6.24
CCGATTAACATCAGGGGAACCTATGATGTTAATCGGGTCTTGATTCGCTTGACGCTGCTG	4.46
CCGATTAACATCACCTGGTCGGGTGATGTTAATCGGGTCTTGATTCGCTTGACGCTGCTG	0.762
CCGATTAACATCAGGGGGATACCTGATGTTAATCGGGTCTTGATTCGCTTGACGCTGCTG	8.7
CCGATTAACATCAGGGGGATACATGATGTTAATCGGGTCTTGATTCGCTTGACGCTGCTG	4.35
CCGATTAACATCAGGGGAATACCTGATGTTAATCGGGTCTTGATTCGCTTGACGCTGCTG	10.5
CCGATTAACATCAGGGGGACAACTGATGTTAATCGGGTCTTGATTCGCTTGACGCTGCTG	4.24
CCGATTAACATCAATGGGAATTCTGATGTTAATCGGGTCTTGATTCGCTTGACGCTGCTG	3.51
CCGATTAACATCAGGAGCCCCCCTGATGTTAATCGGGTCTTGATTCGCTTGACGCTGCTG	5.04
CCGATTAACATCAGGGAATTACCTGATGTTAATCGGGTCTTGATTCGCTTGACGCTGCTG	9.49
CCGATTAACATCAGCGAATTCCCTGATGTTAATCGGGTCTTGATTCGCTTGACGCTGCTG	3.61

Sequence	binding signal [z-score]
CCGATTAACATCAGGGCGTCCCCTGATGTTAATCGGGTCTTGATTCGCTTGACGCTGCTG	7.89
CCGATTAACATCAAAATAGCCCCTGATGTTAATCGGGTCTTGATTCGCTTGACGCTGCTG	5.87
CCGATTAACATCAAAGAAGCCCCTGATGTTAATCGGGTCTTGATTCGCTTGACGCTGCTG	5.13
CCGATTAACATCAGGAAACTCCCTGATGTTAATCGGGTCTTGATTCGCTTGACGCTGCTG	9.07
CCGATTAACATCAGGGGGGTTTATGATGTTAATCGGGTCTTGATTCGCTTGACGCTGCTG	6.15
CCGATTAACATCAGGGGAAAACCTGATGTTAATCGGGTCTTGATTCGCTTGACGCTGCTG	9.77
CCGATTAACATCAGGGATTTTCATGATGTTAATCGGGTCTTGATTCGCTTGACGCTGCTG	5.16
CCGATTAACATCAGGGGACTATATGATGTTAATCGGGTCTTGATTCGCTTGACGCTGCTG	4.61
CCGATTAACATCAGGGGGAAGACTGATGTTAATCGGGTCTTGATTCGCTTGACGCTGCTG	5.25
CCGATTAACATCAGGGGAATTTATGATGTTAATCGGGTCTTGATTCGCTTGACGCTGCTG	8.72
CCGATTAACATCACAACGACCCCTGATGTTAATCGGGTCTTGATTCGCTTGACGCTGCTG	2.48
CCGATTAACATCAGGAGTTCCCCTGATGTTAATCGGGTCTTGATTCGCTTGACGCTGCTG	9.11
CCGATTAACATCAGAAATCCCCCTGATGTTAATCGGGTCTTGATTCGCTTGACGCTGCTG	8.32
CCGATTAACATCAAAACTTTCCCTGATGTTAATCGGGTCTTGATTCGCTTGACGCTGCTG	7.54
CCGATTAACATCAGGATTTTCCCTGATGTTAATCGGGTCTTGATTCGCTTGACGCTGCTG	8.92
CCGATTAACATCAGGGGGACTAATGATGTTAATCGGGTCTTGATTCGCTTGACGCTGCTG	4.27
CCGATTAACATCAGAAGTTCCCCTGATGTTAATCGGGTCTTGATTCGCTTGACGCTGCTG	7.04
CCGATTAACATCACAGATTCCCCTGATGTTAATCGGGTCTTGATTCGCTTGACGCTGCTG	5.96
CCGATTAACATCAAGCCCCCCCATGATGTTAATCGGGTCTTGATTCGCTTGACGCTGCTG	3.85
CCGATTAACATCAAATTACCCCCTGATGTTAATCGGGTCTTGATTCGCTTGACGCTGCTG	5.57

From article PMC5700166
